Source: a compilation of properties of binary mixtures (doi:10.1016/j.molliq.2020.112489)
The densities may have been worked out from excess volumes.

Assay: xn = mol fraction of the nth substance listed
Settings: 101 kPa

In the case of `CC[n+]1ccn(C)c1.O=C([O-])C(F)(F)C(F)(F)C(F)(F)C(F)(F)F` + O, the mass density (298.15 K, x1 = 0.0264) is reported as 1140.8 kg/m3, the mass density (298.15 K, x1 = 0.0311) is reported as 1161.5 kg/m3 and the mass density (298.15 K, x1 = 0.0364) is reported as 1182.4 kg/m3. The mass density (298.15 K, x1 = 0.0428) was 1204.2 kg/m3, the mass density (298.15 K, x1 = 0.0496) was 1224.4 kg/m3 and the mass density (298.15 K, x1 = 0.0581) was 1246.1 kg/m3. It also gave a mass density (298.15 K, x1 = 0.067) of 1265.6 kg/m3, a mass density (298.15 K, x1 = 0.0727) of 1276.6 kg/m3 and a mass density (298.15 K, x1 = 0.0857) of 1298.1 kg/m3. For the same compound, the mass density (298.15 K, x1 = 0.133) was 1350.6 kg/m3, the mass density (298.15 K, x1 = 0.1458) was 1360.5 kg/m3 and the mass density (298.15 K, x1 = 0.1625) was 1371.6 kg/m3. The mass density (298.15 K, x1 = 0.1788) was 1380.8 kg/m3, the mass density (298.15 K, x1 = 0.201) was 1391.5 kg/m3 and the mass density (298.15 K, x1 = 0.262) was 1413.1 kg/m3. The mass density (298.15 K, x1 = 0.3007) was 1422.9 kg/m3, the mass density (298.15 K, x1 = 0.7012) was 1465.1 kg/m3 and the mass density (298.15 K, x1 = 1) was 1486.8 kg/m3. For the same compound, the mass density (308.15 K, x1 = 0.0222) was 1113.9 kg/m3, the mass density (308.15 K, x1 = 0.0264) was 1134.5 kg/m3 and the mass density (308.15 K, x1 = 0.0364) was 1175.6 kg/m3. The mass density (308.15 K, x1 = 0.0496) was 1217.1 kg/m3, the mass density (308.15 K, x1 = 0.0581) was 1238.4 kg/m3 and the mass density (308.15 K, x1 = 0.067) was 1257.6 kg/m3. It also gave a mass density (308.15 K, x1 = 0.0727) of 1268.5 kg/m3, a mass density (308.15 K, x1 = 0.1009) of 1309.8 kg/m3 and a mass density (308.15 K, x1 = 0.133) of 1341.5 kg/m3. The mass density (308.15 K, x1 = 0.1625) was 1362.1 kg/m3, the mass density (308.15 K, x1 = 0.1788) was 1371.2 kg/m3 and the mass density (308.15 K, x1 = 0.2367) was 1395.3 kg/m3. The mass density (308.15 K, x1 = 0.4265) was 1433.3 kg/m3, the mass density (308.15 K, x1 = 0.7012) was 1454.3 kg/m3 and the mass density (308.15 K, x1 = 1) was 1476.2 kg/m3. For the same compound, the mass density (318.15 K, x1 = 0.0264) was 1127.6 kg/m3, the mass density (318.15 K, x1 = 0.0311) was 1147.8 kg/m3 and the mass density (318.15 K, x1 = 0.0364) was 1168.2 kg/m3. The mass density (318.15 K, x1 = 0.0428) was 1189.3 kg/m3, the mass density (318.15 K, x1 = 0.0496) was 1209 kg/m3 and the mass density (318.15 K, x1 = 0.0581) was 1230.1 kg/m3. For the same compound, the mass density (318.15 K, x1 = 0.067) was 1249 kg/m3, the mass density (318.15 K, x1 = 0.0727) was 1259.7 kg/m3 and the mass density (318.15 K, x1 = 0.0857) was 1280.6 kg/m3. It also gave a mass density (318.15 K, x1 = 0.1009) of 1300.4 kg/m3, a mass density (318.15 K, x1 = 0.133) of 1331.7 kg/m3 and a mass density (318.15 K, x1 = 0.1788) of 1361 kg/m3. For the same compound, the mass density (318.15 K, x1 = 0.201) was 1371.5 kg/m3, the mass density (318.15 K, x1 = 0.2367) was 1384.8 kg/m3 and the mass density (318.15 K, x1 = 0.262) was 1392.5 kg/m3. For the same compound, the mass density (318.15 K, x1 = 0.3007) was 1402 kg/m3, the mass density (318.15 K, x1 = 0.4265) was 1422.3 kg/m3 and the mass density (318.15 K, x1 = 0.7012) was 1442.9 kg/m3. The mass density (318.15 K, x1 = 1) was 1465.9 kg/m3.
`Cn1cc[n+](CCO)c1.O=S(=O)([O-])C(F)(F)C(F)(F)C(F)(F)C(F)(F)F` + O gave a mass density (298.15 K, x1 = 0.0178) of 1123.8 kg/m3, a mass density (298.15 K, x1 = 0.0195) of 1133.1 kg/m3 and a mass density (298.15 K, x1 = 0.0212) of 1142.1 kg/m3. It also gave a mass density (298.15 K, x1 = 0.0253) of 1163.7 kg/m3, a mass density (298.15 K, x1 = 0.0297) of 1184.3 kg/m3 and a mass density (298.15 K, x1 = 0.0321) of 1194.3 kg/m3. It also gave a mass density (298.15 K, x1 = 0.0348) of 1205.9 kg/m3, a mass density (298.15 K, x1 = 0.0376) of 1216.1 kg/m3 and a mass density (298.15 K, x1 = 0.0405) of 1229.8 kg/m3. It also gave a mass density (298.15 K, x1 = 0.0438) of 1240.3 kg/m3, a mass density (298.15 K, x1 = 0.0474) of 1251.1 kg/m3 and a mass density (298.15 K, x1 = 0.0551) of 1275.1 kg/m3. The mass density (298.15 K, x1 = 0.0644) was 1298.4 kg/m3, the mass density (298.15 K, x1 = 0.07) was 1312.9 kg/m3 and the mass density (298.15 K, x1 = 0.0756) was 1325.1 kg/m3. The mass density (298.15 K, x1 = 0.0824) was 1339.8 kg/m3, the mass density (298.15 K, x1 = 0.0899) was 1352.8 kg/m3 and the mass density (298.15 K, x1 = 0.1075) was 1381.4 kg/m3. It also gave a mass density (298.15 K, x1 = 0.1178) of 1398.2 kg/m3, a mass density (298.15 K, x1 = 0.1302) of 1412.1 kg/m3 and a mass density (298.15 K, x1 = 0.1441) of 1429.2 kg/m3. It also gave a mass density (298.15 K, x1 = 0.1621) of 1444.4 kg/m3, a mass density (298.15 K, x1 = 0.2068) of 1473.1 kg/m3 and a mass density (298.15 K, x1 = 0.2329) of 1486 kg/m3. The mass density (298.15 K, x1 = 0.2751) was 1502.9 kg/m3, the mass density (298.15 K, x1 = 0.3277) was 1517 kg/m3 and the mass density (298.15 K, x1 = 0.3954) was 1532.4 kg/m3. It also gave a mass density (298.15 K, x1 = 0.5075) of 1550 kg/m3, a mass density (298.15 K, x1 = 1) of 1620 kg/m3 and a mass density (308.15 K, x1 = 0.0178) of 1119.5 kg/m3. It also gave a mass density (308.15 K, x1 = 0.0195) of 1128.7 kg/m3, a mass density (308.15 K, x1 = 0.0212) of 1137.2 kg/m3 and a mass density (308.15 K, x1 = 0.0232) of 1148.4 kg/m3. It also gave a mass density (308.15 K, x1 = 0.0253) of 1158.8 kg/m3, a mass density (308.15 K, x1 = 0.0274) of 1167.5 kg/m3 and a mass density (308.15 K, x1 = 0.0297) of 1179.1 kg/m3. For the same compound, the mass density (308.15 K, x1 = 0.0321) was 1189.1 kg/m3, the mass density (308.15 K, x1 = 0.0348) was 1200.4 kg/m3 and the mass density (308.15 K, x1 = 0.0376) was 1210.5 kg/m3. For the same compound, the mass density (308.15 K, x1 = 0.0405) was 1224 kg/m3, the mass density (308.15 K, x1 = 0.0474) was 1245.1 kg/m3 and the mass density (308.15 K, x1 = 0.0511) was 1256.8 kg/m3. The mass density (308.15 K, x1 = 0.0551) was 1268.5 kg/m3, the mass density (308.15 K, x1 = 0.0596) was 1280.7 kg/m3 and the mass density (308.15 K, x1 = 0.0824) was 1332.5 kg/m3. It also gave a mass density (308.15 K, x1 = 0.0983) of 1360 kg/m3, a mass density (308.15 K, x1 = 0.1075) of 1373.6 kg/m3 and a mass density (308.15 K, x1 = 0.1178) of 1390.2 kg/m3. For the same compound, the mass density (308.15 K, x1 = 0.1621) was 1435.9 kg/m3, the mass density (308.15 K, x1 = 0.1816) was 1450.2 kg/m3 and the mass density (308.15 K, x1 = 0.2329) was 1477.1 kg/m3. For the same compound, the mass density (308.15 K, x1 = 0.2751) was 1493.8 kg/m3, the mass density (308.15 K, x1 = 0.3277) was 1507.8 kg/m3 and the mass density (308.15 K, x1 = 0.5075) was 1540.6 kg/m3. The mass density (308.15 K, x1 = 0.6777) was 1560.4 kg/m3, the mass density (308.15 K, x1 = 1) was 1609.2 kg/m3 and the mass density (318.15 K, x1 = 0.0178) was 1114.3 kg/m3. The mass density (318.15 K, x1 = 0.0195) was 1123.4 kg/m3, the mass density (318.15 K, x1 = 0.0212) was 1131.4 kg/m3 and the mass density (318.15 K, x1 = 0.0253) was 1153.1 kg/m3. For the same compound, the mass density (318.15 K, x1 = 0.0274) was 1161.7 kg/m3, the mass density (318.15 K, x1 = 0.0297) was 1173.1 kg/m3 and the mass density (318.15 K, x1 = 0.0348) was 1194.3 kg/m3. It also gave a mass density (318.15 K, x1 = 0.0376) of 1204.3 kg/m3, a mass density (318.15 K, x1 = 0.0405) of 1217.5 kg/m3 and a mass density (318.15 K, x1 = 0.0474) of 1238.3 kg/m3. It also gave a mass density (318.15 K, x1 = 0.0511) of 1249.8 kg/m3, a mass density (318.15 K, x1 = 0.0551) of 1261.4 kg/m3 and a mass density (318.15 K, x1 = 0.0644) of 1284.3 kg/m3. It also gave a mass density (318.15 K, x1 = 0.07) of 1298.5 kg/m3, a mass density (318.15 K, x1 = 0.0756) of 1308.6 kg/m3 and a mass density (318.15 K, x1 = 0.0824) of 1324.7 kg/m3. The mass density (318.15 K, x1 = 0.0899) was 1337.4 kg/m3, the mass density (318.15 K, x1 = 0.1075) was 1365.3 kg/m3 and the mass density (318.15 K, x1 = 0.1178) was 1381.8 kg/m3. The mass density (318.15 K, x1 = 0.1441) was 1411.8 kg/m3, the mass density (318.15 K, x1 = 0.1621) was 1426.9 kg/m3 and the mass density (318.15 K, x1 = 0.1816) was 1441.2 kg/m3. It also gave a mass density (318.15 K, x1 = 0.2068) of 1454.8 kg/m3, a mass density (318.15 K, x1 = 0.2751) of 1484.1 kg/m3 and a mass density (318.15 K, x1 = 0.3277) of 1497.5 kg/m3. For the same compound, the mass density (318.15 K, x1 = 0.3954) was 1513.5 kg/m3, the mass density (318.15 K, x1 = 0.5075) was 1530.9 kg/m3 and the mass density (318.15 K, x1 = 0.6777) was 1550.8 kg/m3. For the same compound, the mass density (318.15 K, x1 = 1) was 1598.7 kg/m3.
